pIC50: −log10 of the molar value. By IC50 is meant the dose at which the fit gives 50% viability; a limit (>, <) means that the fit lies beyond the doses tested. For AUC the same curve is integrated over the 256-fold range of doses and scaled to a fraction; the more sensitive the line, the further below 1. For some assays here: The top dose, if marked as inferred, was calculated from the reported fits. For some assays here: An entry number marks a drug with two screens in the source, which often give different values.
Assays:
Test in all cases: Viability of human cancer cell lines after 72 h of drug (GDSC screen)
CUDC-101 = compound: C#Cc1cccc(Nc2ncnc3cc(OC)c(OCCCCCCC(=O)NO)cc23)c1 [CUDC-101]; conditions: top dose 5.12 µM; top dose inferred
Procedure: (§1)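 Human cancer cell lines in 384-well plates, medium with 10% serum, drug for 72 h over a 256-fold dose range (nine 2-fold or five 4-fold steps up to the top dose). Adherent lines were fixed and stained with the nucleic acid dye Syto60, suspension lines read with resazurin; signal relative to control wells, capped at 0 and 100%. One two-parameter sigmoid per drug and line, fitted in a mixed model over all curves with the slope shared within a line.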

AC220 = compound: CC(C)(C)c1cc(NC(=O)Nc2ccc(-c3cn4c(n3)sc3cc(OCCN5CCOCC5)ccc34)cc2)no1 [AC220]; conditions: top dose 1.024 µM; top dose inferred
Procedure: as §1

RDEA119 = compound: COc1cc(F)c(F)c(Nc2ccc(I)cc2F)c1NS(=O)(=O)C1(C[C@H](O)CO)CC1 [RDEA119]; conditions: top dose 5 µM, top dose inferred
Procedure: as §1

JNK-9L = compound: Fc1cc(-c2ccnc(Nc3ccc(-n4cnc(N5CCOCC5)n4)cc3)n2)cc(N2CCOCC2)c1 [JNK-9L]; conditions: top dose 5.12 µM; top dose inferred
Procedure: as §1

OSU-03012 = compound: NCC(=O)Nc1ccc(-n2nc(C(F)(F)F)cc2-c2ccc3c(ccc4ccccc43)c2)cc1 [OSU-03012]; conditions: top dose 16 µM; top dose inferred
Procedure: as §1

5-Fluorouracil = compound: O=c1[nH]cc(F)c(=O)[nH]1 [5-Fluorouracil]; conditions: top dose 32 µM; top dose inferred
Procedure: as §1

QS11 = compound: OC[C@H](Cc1ccccc1)Nc1nc(Oc2ccc3c(c2)CCC3)nc2c1ncn2Cc1ccc(-c2ccccc2)cc1 [QS11]; conditions: top dose 10.24 µM
Procedure: as §1

Row | Cell Line | AUC (CUDC-101) | pIC50 (CUDC-101) | AUC (AC220) | pIC50 (AC220) | AUC (RDEA119; screen: GDSC drug entry 1014) | pIC50 (RDEA119; screen: GDSC drug entry 1014) | AUC (RDEA119; screen: GDSC drug entry 1526) | pIC50 (RDEA119; screen: GDSC drug entry 1526) | AUC (JNK-9L) | pIC50 (JNK-9L) | AUC (OSU-03012) | pIC50 (OSU-03012) | AUC (5-Fluorouracil) | pIC50 (5-Fluorouracil) | AUC (QS11) | pIC50 (QS11)
1 | CS1 (bone, adherent) | 0.588 | 6.24 | 0.978 | < 5.99 | 0.788 | 5.61 | 0.871 | < 5.30 | 0.665 | 6.01 | 0.803 | 5.04 | 0.796 | 4.77 | 0.976 | < 4.99
2 | CCK-81 (large intestine, adherent) | 0.45 | 6.63 | 0.919 | < 5.99 |  |  | 0.987 | < 5.30 | 0.617 | 6.18 | 0.855 | 4.94 | 0.706 |  | 0.945 | < 4.99
3 | MY-M12 (leukaemia, suspension) | 0.107 | > 7.70 | 0.902 | < 5.99 | 0.673 | 5.99 |  |  | 0.65 | 6.06 | 0.616 | 5.66 | 0.497 | 5.71 | 0.604 | 5.89
4 | ES3 (Ewing sarcoma, adherent) | 0.493 | 6.51 | 0.829 | 6.17 | 0.973 | < 5.30 | 0.963 | < 5.30 | 0.66 | 6.04 | 0.743 | 5.29 | 0.891 | < 4.49 | 0.809 | 5.25
5 | SLVL (B-cell lymphoma, suspension) | 0.226 | 7.32 | 0.978 | < 5.99 | 0.892 | < 5.30 | 0.929 | < 5.30 | 0.627 | 6.14 | 0.696 | 5.43 | 0.266 | 6.39 | 0.962 | < 4.99
6 | RH-1 (rhabdomyosarcoma, adherent) | 0.314 | 6.97 | 0.989 | < 5.99 | 0.979 | < 5.30 | 0.982 | < 5.30 | 0.492 | 6.52 | 0.591 | 5.77 | 0.371 | 6.03 | 0.826 | 5.31
7 | CPC-N (small cell lung carcinoma, suspension) | 0.462 | 6.60 | 0.977 | < 5.99 | 0.951 | < 5.30 | 0.971 | < 5.30 | 0.875 | < 5.29 | 0.985 | < 4.80 | 0.684 | 5.16 | 0.837 | 5.11
8 | NCI-H2052 (mesothelioma, adherent) | 0.92 | < 5.29 | 0.971 | < 5.99 | 0.905 | < 5.30 |  |  | 0.619 | 6.13 | 0.806 | 4.96 | 0.928 | < 4.49 | 0.978 | < 4.99
9 | WM793B (melanoma, adherent) | 0.693 | 5.92 | 0.971 | < 5.99 | 0.796 | 5.58 | 0.786 | 5.62 | 0.444 | 6.66 | 0.707 | 5.39 | 0.934 | < 4.49 | 0.935 | < 4.99
